Assay results from PubChem BioAssay AID588591 (National Center for Advancing Translational Sciences (NCATS), 2011).
Screen size: about 390,000 compounds; about 4,700 (1.2%) were called active. Inconclusive results (about 4%) are left out. The call rests on the fitted dose curve; in most records, active means well fitted inhibition curve with a large enough effect; inconclusive means small, poorly fitted or top-dose-only effect, or another doubt; inactive means no such curve, though single readings can be large or run the other way. Only a part is listed here, and it is no random draw. A structure can be active in one record and inactive in another.

Biological target: DNA polymerase eta (Homo sapiens) (UniProt Q9Y253)
Sequence of UniProt Q9Y253 (Q9Y253 whole entry, looked up): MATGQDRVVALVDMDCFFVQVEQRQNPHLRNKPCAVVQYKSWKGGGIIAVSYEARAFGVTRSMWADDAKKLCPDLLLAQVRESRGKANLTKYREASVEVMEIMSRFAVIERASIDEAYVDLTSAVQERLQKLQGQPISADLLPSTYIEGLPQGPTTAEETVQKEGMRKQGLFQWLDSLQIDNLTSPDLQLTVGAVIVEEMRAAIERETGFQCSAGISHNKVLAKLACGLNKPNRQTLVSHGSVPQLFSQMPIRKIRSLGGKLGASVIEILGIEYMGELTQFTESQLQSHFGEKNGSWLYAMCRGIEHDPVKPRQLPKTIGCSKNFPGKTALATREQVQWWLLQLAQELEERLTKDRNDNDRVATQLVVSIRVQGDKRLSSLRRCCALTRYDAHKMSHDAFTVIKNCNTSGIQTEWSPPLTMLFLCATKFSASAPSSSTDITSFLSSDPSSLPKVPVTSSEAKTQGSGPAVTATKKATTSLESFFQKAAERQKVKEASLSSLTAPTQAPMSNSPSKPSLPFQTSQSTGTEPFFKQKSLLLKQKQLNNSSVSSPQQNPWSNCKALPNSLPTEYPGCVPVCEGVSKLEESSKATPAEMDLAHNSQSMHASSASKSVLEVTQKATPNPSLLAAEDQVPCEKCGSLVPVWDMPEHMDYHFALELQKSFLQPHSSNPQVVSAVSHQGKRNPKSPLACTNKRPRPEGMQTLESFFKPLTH
Assay: qHTS for Inhibitors of Polymerase Eta
Details: recombinant Pol eta, fluorescent DNA replication assay; series mostly up to 114 µM; activity change, negative = inhibition: at the top concentration
Outline: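 Pol eta at 10 nM preincubated with compounds 15 min at room temperature; reaction started with fluorescent substrate (50 nM final) and read kinetically at 0 and 10 min.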
On the % scale 0 is the no-effect control and ±100 the full control effect; potency means the concentration at half of the fitted maximal effect.

SMILES | activity change, negative = inhibition | Potency
CCc1c(C)nc(Nc2nc(C)c3ccc(OC)cc3n2)[nH]c1=O | inactive: 20.1% | –
Cc1cccc(NC(=O)Nc2ccccn2)c1C | inactive: 40.1% | –
N#Cc1cc2nc(O)c(O)nc2cc1[N+](=O)[O-] | inactive: 2.63% | –
CCC(C(=O)NC1CCCCC1)n1c(SCc2ccccc2F)nc2ccncc21 (stereo not given) | inactive: -23.4% | –
C=CCOC(=O)C1=C[C@H](c2csc3ccccc23)[C@@H](CCCO)[C@H](OCC)O1 | inactive: -19.8% | –
N[C@@H](Cc1cc(I)c(Oc2ccc(O)c(I)c2)c(I)c1)C(=O)O | inactive: -7.58% | –
COc1ccc(NS(=O)(=O)c2cccc(C(=O)N/N=C(/C)c3ccc(-n4ccnc4)cc3)c2)cc1 | inactive: -14.4% | –
O=C(Cc1ccc(S(=O)(=O)N2CCOCC2)s1)NC1CCCCC1 | – | active: 20 µM
O=C(N/N=C/c1ccc(F)cc1)c1cc(-c2ccco2)nc2ccccc12 | – | active: 1.58 µM
C=CCn1c(SCC(=O)c2ccc(O)c(O)c2)nnc1-c1cccnc1 | – | active: 3.98 µM
COc1ccc(OC)c(/C=N/NC(=O)c2[nH]nc3c2CCc2ccccc2-3)c1 | inactive: 16.7% | –
O=C(CSc1nc(=O)n2ccccc2n1)OCc1ccccc1 | inactive: -12.4% | –
COC(=O)c1ccc(NC(=O)CCS(=O)(=O)c2ccc(Br)cc2)cc1 | inactive: -14.7% | –
COc1cc2nc(Nc3ccc(C)c(C)c3)nc(N)c2cc1OC | inactive: -24.3% | –
CCCCN(C(=O)c1ccco1)C1CCS(=O)(=O)C1 (stereo not given) | inactive: 3.05% | –
COc1ccc(-c2nn(-c3ccccc3)cc2/C=C2/SC(=S)N(CCC(=O)O)C2=O)cc1 | – | active: 22.4 µM
NS(=O)(=O)c1cc2c(cc1Cl)NC(C1CC3C=CC1C3)NS2(=O)=O (stereo not given) | – | inactive
Cc1cc(NC(=O)c2cnn3c(C(F)(F)F)cc(-c4ccccc4)nc23)no1 | inactive: -11.7% | –
Cc1ccc2c(C)nc(Nc3nc(CSc4nnc(C)s4)cc(=O)[nH]3)nc2c1 | inactive: 29.1% | –
Cc1ccc(C(=O)c2c(C)oc3c2C(=O)C(=O)c2ccccc2-3)cc1 | – | active: 44.7 µM
Ic1ccc(N2CCN(Cc3c[nH]c4ncccc34)CC2)cc1 | inactive: -18.4% | –
CCN(CC)S(=O)(=O)c1ccc(N2CCOCC2)c(NC(=O)c2c3c(nc4ccccc24)CCC3)c1 | – | active: 35.5 µM
C=CCC[C@H](Cc1ccc(F)cc1)C(=O)OC[C@@H](Cc1c[nH]c2ccccc12)NC(=O)[C@H](CC=C)CC(=O)N(CCO)Cc1ccccc1 | inactive: -21.8% | –
COc1cccc2c1C(=O)c1c(O)c3c(c(O)c1C2=O)C[C@@](O)(C(C)=O)C[C@@H]3O[C@H]1C[C@H](N)[C@H](O)[C@H](C)O1 | inactive: -12.1% | –
C=CCC[C@@H](Cc1ccc(F)cc1)C(=O)OC[C@@H]1CCCN1C(=O)[C@H](CC=C)CC(=O)N[C@H](CO)Cc1ccccc1 | inactive: -30.5% | –
